# Laboratory results published in the supplement of paper PMC8728848.
# This is one part of the list.
# B1: SialidaseA (Arthrobacter ureafaciens) (protein)
# chain: MRSNSTSAPSLVRRAATGVLTCAVSIGLLAGLGLPAQAAPTPPNSPTLPPGSFSETNLAADRTAANFFYRIPALTYLGNDVVLAAWDGRPGSAADAPNPNSIVQRRSTDGGKTWGPVQVIAAGHVADASGPRYGYSDPSYIYDAEANKVFAFFVYSKDQGFGGSQFGNDDADRNVISSAVIESSDAGVTWSQPRLITSVTKPGTSKTNPAAGDVRSNFASSGEGIQLKYGPHKGRLIQQYAGDVRQADGSNKIQAYSVYSDDHGVTWHKGANVGDRMDENKTVELSDGRVLLNSRDNANRGYRKVAVSTDGGATYGPVSQDTELPDPANNGAIARMFPNAAQGSADAKKLIFTNANSKTGRENVSARVSCDDGETWPGVRTIRSGFSAYSTVTRLADGKFGVLYEGNYTDNMPFATFDDAWLNYVCAPLAVPAVNIAPSATQEVPVTVTNQEATTLSGATATVYTPSGWSATTVPVPDVAPGASVTVTVALTAPADASGPRSLNAAFTTADGRVSQFTFTATTPVAPQVGLTITGSAPARDVAANPYQAGDVLGYTLNVKSTANVAANSVPLTGTFDSGFLPPAAPNCRYNNLAAGASYNCTTAKHTITAADMERGYFVPEATFSITSTTTPSLTKTVQFTGAAVALRDGLISADISGARTDVGRDLATRPYAAGELVPYAFTVKNTSPFVEQVVPTAGNFSPFLPAGAGNCRYLSLPAGQSYECATPRHAVTAEEVEQGFFVPDTTWEVSAAGQSTRTYRINGGEVDLLVRDAALSATVVAEWKDADGDRFASAGDPVTFTYTVGNAGNVALTGLEAPDAGISLPFLAPGDTATATREHVLTAADVAGGSLAASAFEATARNGSKEVTATAEGQPLELKVQPAQPSKEPELTVQDLEDQTPPFDLGTAFKYRTGQKVSLAGLEYGQWYYVYLNKTGYRLGWMFPTTGDTVEFILPPEVRNGRDDVVVLDKDGRRVSFDRLQVTPKGEKI
# Columns and labels:
# Assay in all cases: glycan array binding signal (z-score within array); higher = stronger binding
# Conditions in all cases: glycan notation: IUPAC condensed, linker removed
# Gal3S(b1-4)Glc = target: Gal3S(b1-4)Glc
# Procedure, shortened: (§1)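 Arrays were curated from the Consortium for Functional Glycomics database, 3228 in total, and kept only where the protein sequence was available. Binding is expressed as a within-array Z-score. This score was averaged across arrays of the same protein sequence at different concentrations or buffers and across linkers, and negative values can be read as non-binding.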
# Gal3S(b1-4)Glc6S = target: Gal3S(b1-4)Glc6S
# Procedure, shortened: as §1
# Gal3S(b1-4)GlcNAc = target: Gal3S(b1-4)GlcNAc
# Procedure, shortened: as §1
# [1] = target: Gal3S(b1-4)[Fuc(a1-3)]Glc6S
# Procedure, shortened: as §1
# [2] = target: Gal3S(b1-4)[Fuc(a1-3)]GlcNAc
# Procedure, shortened: as §1
# [3] = target: Gal3S(b1-4)[Fuc(a1-3)]GlcNAc6S
# Procedure, shortened: as §1
# Gal3S4S(b1-4)GlcNAc = target: Gal3S4S(b1-4)GlcNAc
# Procedure, shortened: as §1
# Gal3S6S(b1-4)GlcNAc = target: Gal3S6S(b1-4)GlcNAc
# Procedure, shortened: as §1
# Gal3S6S(b1-4)GlcNAc6S = target: Gal3S6S(b1-4)GlcNAc6S
# Procedure, shortened: as §1
# Gal4S(b1-4)GlcNAc = target: Gal4S(b1-4)GlcNAc
# Procedure, shortened: as §1
# Gal4S6S(b1-4)GlcNAc = target: Gal4S6S(b1-4)GlcNAc
# Procedure, shortened: as §1
# Gal6P(b1-4)GlcNAc = target: Gal6P(b1-4)GlcNAc
# Procedure, shortened: as §1
# Gal6S(b1-3)GlcNAc = target: Gal6S(b1-3)GlcNAc
# Procedure, shortened: as §1
# Gal6S(b1-3)GlcNAc6S = target: Gal6S(b1-3)GlcNAc6S
# Procedure, shortened: as §1
# Gal6S(b1-4)Glc = target: Gal6S(b1-4)Glc
# Procedure, shortened: as §1
# Gal6S(b1-4)Glc6S = target: Gal6S(b1-4)Glc6S
# Procedure, shortened: as §1
# Gal6S(b1-4)GlcNAc = target: Gal6S(b1-4)GlcNAc
# Procedure, shortened: as §1
# Gal6S(b1-4)GlcNAc6S = target: Gal6S(b1-4)GlcNAc6S
# Procedure, shortened: as §1
# GalNAc(a1-3)Gal = target: GalNAc(a1-3)Gal
# Procedure, shortened: as §1
# GalNAc(a1-3)GalNAc = target: GalNAc(a1-3)GalNAc
# Procedure, shortened: as §1
# [4] = target: GalNAc(a1-3)GalNAc(b1-3)Gal(a1-4)Gal(b1-4)Glc
# Procedure, shortened: as §1
# [5] = target: GalNAc(a1-3)GalNAc(b1-3)Gal(a1-4)Gal(b1-4)GlcNAc
# Procedure, shortened: as §1
# GalNAc(b1-3)Gal = target: GalNAc(b1-3)Gal
# Procedure, shortened: as §1
# [6] = target: GalNAc(b1-3)Gal(a1-4)Gal(b1-4)GlcNAc
# Procedure, shortened: as §1
# [7] = target: GalNAc(b1-3)Gal(a1-4)Gal(b1-4)GlcNAc(b1-3)Gal(b1-4)Glc
# Procedure, shortened: as §1
# [8] = target: GalNAc(b1-3)Gal(a1-6)Gal(b1-4)Glc
# Procedure, shortened: as §1
# GalNAc(b1-3)GalNAc = target: GalNAc(b1-3)GalNAc
# Procedure, shortened: as §1
# GalNAc(b1-3)GlcNAc = target: GalNAc(b1-3)GlcNAc
# Procedure, shortened: as §1
# GalNAc(b1-4)Gal(b1-4)Glc = target: GalNAc(b1-4)Gal(b1-4)Glc
# Procedure, shortened: as §1
# GalNAc(b1-4)GlcNAc = target: GalNAc(b1-4)GlcNAc
# Procedure, shortened: as §1
binder,measurement,setting,value
B1,glycan array binding signal (z-score),Gal3S(b1-4)Glc,-0.495
same,glycan array binding signal (z-score),Gal3S(b1-4)Glc6S,-0.587
same,glycan array binding signal (z-score),Gal3S(b1-4)GlcNAc,-0.788
same,glycan array binding signal (z-score),[1],-0.279
same,glycan array binding signal (z-score),[2],-0.071
same,glycan array binding signal (z-score),[3],-0.89
same,glycan array binding signal (z-score),Gal3S4S(b1-4)GlcNAc,-0.684
same,glycan array binding signal (z-score),Gal3S6S(b1-4)GlcNAc,-0.599
same,glycan array binding signal (z-score),Gal3S6S(b1-4)GlcNAc6S,-0.535
same,glycan array binding signal (z-score),Gal4S(b1-4)GlcNAc,-0.725
same,glycan array binding signal (z-score),Gal4S6S(b1-4)GlcNAc,-0.887
same,glycan array binding signal (z-score),Gal6P(b1-4)GlcNAc,-0.639
same,glycan array binding signal (z-score),Gal6S(b1-3)GlcNAc,-0.689
same,glycan array binding signal (z-score),Gal6S(b1-3)GlcNAc6S,-0.618
same,glycan array binding signal (z-score),Gal6S(b1-4)Glc,-0.719
same,glycan array binding signal (z-score),Gal6S(b1-4)Glc6S,-0.606
same,glycan array binding signal (z-score),Gal6S(b1-4)GlcNAc,-0.591
same,glycan array binding signal (z-score),Gal6S(b1-4)GlcNAc6S,-0.539
same,glycan array binding signal (z-score),GalNAc(a1-3)Gal,-0.631
same,glycan array binding signal (z-score),GalNAc(a1-3)GalNAc,-0.525
same,glycan array binding signal (z-score),[4],-0.494
same,glycan array binding signal (z-score),[5],-0.321
same,glycan array binding signal (z-score),GalNAc(b1-3)Gal,-0.699
same,glycan array binding signal (z-score),[6],0.031
same,glycan array binding signal (z-score),[7],-0.337
same,glycan array binding signal (z-score),[8],-0.916
same,glycan array binding signal (z-score),GalNAc(b1-3)GalNAc,-0.689
same,glycan array binding signal (z-score),GalNAc(b1-3)GlcNAc,-0.637
same,glycan array binding signal (z-score),GalNAc(b1-4)Gal(b1-4)Glc,-0.693
same,glycan array binding signal (z-score),GalNAc(b1-4)GlcNAc,-0.402
